In paper PMC7511960 one finds binding data, which are given here for one substance.

By UniProt entry, the sequences of proteins in these tests, tags left out.
UniProt O95863: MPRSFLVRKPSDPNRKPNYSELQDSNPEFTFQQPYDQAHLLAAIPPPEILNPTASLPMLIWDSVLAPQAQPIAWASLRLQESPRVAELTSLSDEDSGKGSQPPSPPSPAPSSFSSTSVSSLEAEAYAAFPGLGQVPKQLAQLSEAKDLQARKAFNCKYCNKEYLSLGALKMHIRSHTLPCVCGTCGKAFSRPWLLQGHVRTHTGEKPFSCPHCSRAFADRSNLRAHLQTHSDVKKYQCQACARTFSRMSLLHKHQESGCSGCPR

Common to all, as to test: co-IP; HEK293T co-transfected for 24 h; GFP or GFP-tagged USP29 variants immunoprecipitated with anti-GFP antibody and protein G-agarose, 4 h at 4 °C, Triton X-100 lysis buffer (50 mM Tris-HCl pH 7.4, 150 mM NaCl, 1 mM EDTA, 1% Triton X-100); blot for Snail1
For assay [1], the target named is T1, GFP-USP29 (wild type, full length) (UniProt Q9HBJ7).
T1 sequence: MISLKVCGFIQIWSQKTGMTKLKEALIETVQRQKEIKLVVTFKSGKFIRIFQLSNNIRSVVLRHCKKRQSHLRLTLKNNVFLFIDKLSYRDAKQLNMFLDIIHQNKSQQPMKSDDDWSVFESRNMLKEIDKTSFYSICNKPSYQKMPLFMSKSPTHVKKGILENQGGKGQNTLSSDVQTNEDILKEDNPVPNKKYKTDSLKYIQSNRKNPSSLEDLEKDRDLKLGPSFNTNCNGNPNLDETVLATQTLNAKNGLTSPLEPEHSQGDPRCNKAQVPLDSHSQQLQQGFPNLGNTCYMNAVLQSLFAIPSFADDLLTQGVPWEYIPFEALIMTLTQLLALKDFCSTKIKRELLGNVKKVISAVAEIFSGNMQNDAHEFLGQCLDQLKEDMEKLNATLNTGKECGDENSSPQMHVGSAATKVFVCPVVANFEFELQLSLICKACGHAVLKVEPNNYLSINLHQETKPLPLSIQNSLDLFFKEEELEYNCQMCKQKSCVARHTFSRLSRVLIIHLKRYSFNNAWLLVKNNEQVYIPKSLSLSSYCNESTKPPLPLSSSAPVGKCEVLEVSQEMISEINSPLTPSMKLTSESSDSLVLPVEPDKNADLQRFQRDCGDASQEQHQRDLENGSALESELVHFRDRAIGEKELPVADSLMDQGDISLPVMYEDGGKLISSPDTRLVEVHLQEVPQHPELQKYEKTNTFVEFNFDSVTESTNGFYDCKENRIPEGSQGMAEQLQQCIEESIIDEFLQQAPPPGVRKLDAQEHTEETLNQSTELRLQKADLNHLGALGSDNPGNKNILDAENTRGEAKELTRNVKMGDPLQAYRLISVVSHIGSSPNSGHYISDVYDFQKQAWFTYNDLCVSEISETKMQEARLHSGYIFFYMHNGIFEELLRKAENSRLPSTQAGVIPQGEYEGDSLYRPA

Assay [2] deals with T2, GFP-USP29 N-terminus (amino acids 1-283) (UniProt Q9HBJ7).
T2 sequence: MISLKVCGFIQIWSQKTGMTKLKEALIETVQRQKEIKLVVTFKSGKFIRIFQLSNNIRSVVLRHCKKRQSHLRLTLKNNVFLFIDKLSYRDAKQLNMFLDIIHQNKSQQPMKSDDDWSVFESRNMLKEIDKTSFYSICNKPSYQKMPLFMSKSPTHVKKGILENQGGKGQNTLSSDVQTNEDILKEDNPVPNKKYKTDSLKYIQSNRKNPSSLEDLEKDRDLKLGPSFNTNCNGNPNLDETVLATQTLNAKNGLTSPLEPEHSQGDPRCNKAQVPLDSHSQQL

The target of assay [3] is T3, GFP-USP29(USP), catalytic USP domain (amino acids 284-922) (UniProt Q9HBJ7).
T3 sequence: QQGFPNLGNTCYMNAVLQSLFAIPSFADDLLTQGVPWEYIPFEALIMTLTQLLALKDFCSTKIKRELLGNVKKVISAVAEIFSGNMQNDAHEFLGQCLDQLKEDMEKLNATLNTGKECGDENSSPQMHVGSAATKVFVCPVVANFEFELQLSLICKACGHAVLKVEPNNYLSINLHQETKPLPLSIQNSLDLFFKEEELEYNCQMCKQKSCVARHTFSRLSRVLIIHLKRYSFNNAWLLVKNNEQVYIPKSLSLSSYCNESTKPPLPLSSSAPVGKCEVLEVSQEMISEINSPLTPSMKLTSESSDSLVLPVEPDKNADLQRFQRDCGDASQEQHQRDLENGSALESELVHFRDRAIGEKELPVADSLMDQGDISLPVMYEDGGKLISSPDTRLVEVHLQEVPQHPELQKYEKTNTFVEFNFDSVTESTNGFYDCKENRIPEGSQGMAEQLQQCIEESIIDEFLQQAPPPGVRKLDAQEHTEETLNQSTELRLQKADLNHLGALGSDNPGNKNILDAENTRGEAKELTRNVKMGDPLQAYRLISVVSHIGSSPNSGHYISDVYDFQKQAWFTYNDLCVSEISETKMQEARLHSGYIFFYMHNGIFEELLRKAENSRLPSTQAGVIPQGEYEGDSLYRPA

No constants are given. Whether binding was seen depends on the method and setting. In cells and extracts the contact can be indirect. Some results given as binding are weak or reduced against the parent protein; the word gives no strength. Tags and fused reporters may be left off the sequences shown.

In the case of “Flag-tagged Snail1 (from UniProt O95863 1-264)”, the binding entry in assay [1] is reported as “binds”; in assay [2] it was “binds weakly”; in assay [3], “binds weakly”.
